Test results as given in the supplement of paper PMC8728848.
This is one part of the list.

What was measured:
Experiment in all cases: glycan array binding signal (z-score within array); higher = stronger binding
Conditions in all cases: glycan notation: IUPAC condensed, linker removed
[1] = target: Gal(a1-3)Gal(b1-3)GlcNAc(b1-6)GalNAc
How it was run: (§1)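 Columns mapping to the same glycan were averaged after glycan names were converted to IUPAC-condensed notation. The data come from 3228 arrays in the Consortium for Functional Glycomics database, limited to those with an available protein sequence. Binding is reported as a within-array Z-score averaged across arrays of one protein sequence and across linkers.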

[2] = target: Gal(a1-3)Gal(b1-3)[Fuc(a1-4)]GlcNAc(b1-2)Man(a1-3)[Gal(a1-3)Gal(b1-3)[Fuc(a1-4)]GlcNAc(b1-2)Man(a1-6)]Man(b1-4)GlcNAc(b1-4)GlcNAc
How it was run: as §1

Gal(a1-3)Gal(b1-4)Glc = target: Gal(a1-3)Gal(b1-4)Glc
How it was run: as §1

Gal(a1-3)Gal(b1-4)GlcNAc = target: Gal(a1-3)Gal(b1-4)GlcNAc
How it was run: as §1

[3] = target: Gal(a1-3)Gal(b1-4)GlcNAc(b1-2)Man
How it was run: as §1

[4] = target: Gal(a1-3)Gal(b1-4)GlcNAc(b1-2)Man(a1-3)[Gal(a1-3)Gal(b1-4)GlcNAc(b1-2)Man(a1-6)]Man(b1-4)GlcNAc(b1-4)GlcNAc
How it was run: as §1

[5] = target: Gal(a1-3)Gal(b1-4)GlcNAc(b1-3)GalNAc
How it was run: as §1

[6] = target: Gal(a1-3)Gal(b1-4)GlcNAc(b1-6)GalNAc
How it was run: as §1

[7] = target: Gal(a1-3)Gal(b1-4)[Fuc(a1-3)]GlcNAc
How it was run: as §1

[8] = target: Gal(a1-3)Gal(b1-4)[Fuc(a1-3)]GlcNAc(b1-2)Man(a1-3)[Gal(a1-3)Gal(b1-4)[Fuc(a1-3)]GlcNAc(b1-2)Man(a1-6)]Man(b1-4)GlcNAc(b1-4)GlcNAc
How it was run: as §1

Gal(a1-3)GalNAc = target: Gal(a1-3)GalNAc
How it was run: as §1

[9] = target: Gal(a1-3)[Gal(a1-4)]Gal(b1-4)GlcNAc
How it was run: as §1

[10] = target: Gal(a1-4)Gal(b1-3)GlcNAc(b1-2)Man(a1-3)[Gal(a1-4)Gal(b1-3)GlcNAc(b1-2)Man(a1-6)]Man(b1-4)GlcNAc(b1-4)GlcNAc
How it was run: as §1

Gal(a1-4)Gal(b1-4)Glc = target: Gal(a1-4)Gal(b1-4)Glc
How it was run: as §1

Gal(a1-4)Gal(b1-4)GlcNAc = target: Gal(a1-4)Gal(b1-4)GlcNAc
How it was run: as §1

[11] = target: Gal(a1-4)Gal(b1-4)GlcNAc(b1-2)Man(a1-3)[Gal(a1-4)Gal(b1-4)GlcNAc(b1-2)Man(a1-6)]Man(b1-4)GlcNAc(b1-4)GlcNAc
How it was run: as §1

[12] = target: Gal(a1-4)Gal(b1-4)GlcNAc(b1-3)Gal(b1-4)Glc
How it was run: as §1

Gal(a1-4)GlcNAc = target: Gal(a1-4)GlcNAc
How it was run: as §1

Gal(a1-6)Glc = target: Gal(a1-6)Glc
How it was run: as §1

Gal(b1-2)Gal = target: Gal(b1-2)Gal
How it was run: as §1

Gal(b1-3)Gal = target: Gal(b1-3)Gal
How it was run: as §1

Gal(b1-3)Gal(b1-4)GlcNAc = target: Gal(b1-3)Gal(b1-4)GlcNAc
How it was run: as §1

Gal(b1-3)GalNAc = target: Gal(b1-3)GalNAc
How it was run: as §1

[13] = target: Gal(b1-3)GalNAc(a1-3)[Fuc(a1-2)]Gal(b1-4)Glc
How it was run: as §1

[14] = target: Gal(b1-3)GalNAc(a1-3)[Fuc(a1-2)]Gal(b1-4)GlcNAc
How it was run: as §1

Gal(b1-3)GalNAc(b1-3)Gal = target: Gal(b1-3)GalNAc(b1-3)Gal
How it was run: as §1

[15] = target: Gal(b1-3)GalNAc(b1-3)Gal(a1-4)Gal(b1-4)Glc
How it was run: as §1

[16] = target: Gal(b1-3)GalNAc(b1-4)Gal(b1-4)Glc
How it was run: as §1

[17] = target: Gal(b1-3)GalNAc(b1-4)[Neu5Ac(a2-3)]Gal(b1-4)Glc
How it was run: as §1

Gal(b1-3)GlcNAc = target: Gal(b1-3)GlcNAc
How it was run: as §1

[18] = target: Gal(b1-3)GlcNAc(a1-3)Gal(b1-4)GlcNAc
How it was run: as §1

[19] = target: Gal(b1-3)GlcNAc(a1-6)Gal(b1-4)GlcNAc
How it was run: as §1

Gal(b1-3)GlcNAc(b1-2)Man = target: Gal(b1-3)GlcNAc(b1-2)Man
How it was run: as §1

[20] = target: Gal(b1-3)GlcNAc(b1-2)Man(a1-3)[Gal(b1-3)GlcNAc(b1-2)Man(a1-6)]Man(b1-4)GlcNAc(b1-4)GlcNAc
How it was run: as §1

[21] = target: Gal(b1-3)GlcNAc(b1-2)Man(a1-3)[Gal(b1-3)GlcNAc(b1-2)Man(a1-6)]Man(b1-4)GlcNAc(b1-4)[Fuc(a1-6)]GlcNAc
How it was run: as §1

[22] = target: Gal(b1-3)GlcNAc(b1-2)Man(a1-3)[GlcNAc(b1-4)][Gal(b1-3)GlcNAc(b1-2)Man(a1-6)]Man(b1-4)GlcNAc(b1-4)GlcNAc
How it was run: as §1

[23] = target: Gal(b1-3)GlcNAc(b1-2)[Gal(b1-3)GlcNAc(b1-6)]Man(a1-6)[Gal(b1-3)GlcNAc(b1-2)Man(a1-3)]Man(b1-4)GlcNAc(b1-4)GlcNAc
How it was run: as §1

[24] = target: Gal(b1-3)GlcNAc(b1-3)Gal(b1-3)GlcNAc
How it was run: as §1

[25] = target: Gal(b1-3)GlcNAc(b1-3)Gal(b1-4)Glc
How it was run: as §1

[26] = target: Gal(b1-3)GlcNAc(b1-3)Gal(b1-4)GlcNAc
How it was run: as §1

[27] = target: Gal(b1-3)GlcNAc(b1-3)Gal(b1-4)GlcNAc(b1-2)Man(a1-3)[Gal(b1-3)GlcNAc(b1-3)Gal(b1-4)GlcNAc(b1-2)Man(a1-6)]Man(b1-4)GlcNAc(b1-4)GlcNAc
How it was run: as §1

[28] = target: Gal(b1-3)GlcNAc(b1-3)Gal(b1-4)GlcNAc(b1-2)[Gal(b1-3)GlcNAc(b1-3)Gal(b1-4)GlcNAc(b1-6)]Man(a1-6)[Gal(b1-3)GlcNAc(b1-3)Gal(b1-4)GlcNAc(b1-2)Man(a1-3)]Man(b1-4)GlcNAc(b1-4)[Fuc(a1-6)]GlcNAc
How it was run: as §1

[29] = target: Gal(b1-3)GlcNAc(b1-3)Gal(b1-4)GlcNAc(b1-3)Gal(b1-4)GlcNAc(b1-2)[Gal(b1-3)GlcNAc(b1-3)Gal(b1-4)GlcNAc(b1-3)Gal(b1-4)GlcNAc(b1-6)]Man(a1-6)[Gal(b1-3)GlcNAc(b1-3)Gal(b1-4)GlcNAc(b1-3)Gal(b1-4)GlcNAc(b1-2)Man(a1-3)]Man(b1-4)GlcNAc(b1-4)[Fuc(a1-6)]GlcNAc
How it was run: as §1

[30] = target: Gal(b1-3)GlcNAc(b1-3)Gal(b1-4)GlcNAc(b1-6)[Gal(b1-3)GlcNAc(b1-3)]Gal(b1-4)Glc
How it was run: as §1

[31] = target: Gal(b1-3)GlcNAc(b1-3)Gal(b1-4)[Fuc(a1-3)]GlcNAc
How it was run: as §1

B1: WGA (Triticum vulgare) (protein)
chain: QRCGEQGSNMECPNNLCCSQYGYCGMGGDYCGKGCQNGACWTSKRCGSQAGGATCPNNHCCSQYGHCGFGAEYCGAGCQGGPCRADIKCGSQSGGKLCPNNLCCSQWGFCGLGSEFCGGGCQSGACSTDKPCGKDAGGRVCTNNYCCSKWGSCGIGPGYCGAGCQSGGCDAVFAGAITANSTLLAE
glycan array binding signal (z-score) [1]: -0.388
glycan array binding signal (z-score) [2]: -0.202
glycan array binding signal (z-score) (Gal(a1-3)Gal(b1-4)Glc): -0.342
glycan array binding signal (z-score) (Gal(a1-3)Gal(b1-4)GlcNAc): -0.01
glycan array binding signal (z-score) [3]: -0.338
glycan array binding signal (z-score) [4]: -0.118
glycan array binding signal (z-score) [5]: -0.357
glycan array binding signal (z-score) [6]: -0.293
glycan array binding signal (z-score) [7]: -0.36
glycan array binding signal (z-score) [8]: -0.3
glycan array binding signal (z-score) (Gal(a1-3)GalNAc): -0.333
glycan array binding signal (z-score) [9]: 1.26
glycan array binding signal (z-score) [10]: -0.238
glycan array binding signal (z-score) (Gal(a1-4)Gal(b1-4)Glc): -0.335
glycan array binding signal (z-score) (Gal(a1-4)Gal(b1-4)GlcNAc): 0.221
glycan array binding signal (z-score) [11]: -0.064
glycan array binding signal (z-score) [12]: -0.226
glycan array binding signal (z-score) (Gal(a1-4)GlcNAc): -0.352
glycan array binding signal (z-score) (Gal(a1-6)Glc): -0.327
glycan array binding signal (z-score) (Gal(b1-2)Gal): -0.351
glycan array binding signal (z-score) (Gal(b1-3)Gal): -0.372
glycan array binding signal (z-score) (Gal(b1-3)Gal(b1-4)GlcNAc): -0.293
glycan array binding signal (z-score) (Gal(b1-3)GalNAc): -0.339
glycan array binding signal (z-score) [13]: -0.366
glycan array binding signal (z-score) [14]: 0.106
glycan array binding signal (z-score) (Gal(b1-3)GalNAc(b1-3)Gal): -0.346
glycan array binding signal (z-score) [15]: -0.328
glycan array binding signal (z-score) [16]: -0.338
glycan array binding signal (z-score) [17]: -0.39
glycan array binding signal (z-score) (Gal(b1-3)GlcNAc): -0.349
glycan array binding signal (z-score) [18]: -0.155
glycan array binding signal (z-score) [19]: -0.344
glycan array binding signal (z-score) (Gal(b1-3)GlcNAc(b1-2)Man): -0.277
glycan array binding signal (z-score) [20]: -0.195
glycan array binding signal (z-score) [21]: -0.293
glycan array binding signal (z-score) [22]: 0.703
glycan array binding signal (z-score) [23]: -0.291
glycan array binding signal (z-score) [24]: -0.315
glycan array binding signal (z-score) [25]: -0.373
glycan array binding signal (z-score) [26]: -0.22
glycan array binding signal (z-score) [27]: -0.225
glycan array binding signal (z-score) [28]: -0.056
glycan array binding signal (z-score) [29]: -0.123
glycan array binding signal (z-score) [30]: -0.157
glycan array binding signal (z-score) [31]: -0.405
